Assay results reported in PubChem BioAssay AID485281 (National Center for Advancing Translational Sciences (NCATS), 2010).
Several values for one entry are separate records, joined by “and”; a condition that tells them apart may be missing. Equal values may be shown once. Among all 350,000 compounds or so, about 260 (0.074%) were called active. The inconclusive results got no clear call from the source; some entries with a clear call stand among them for comparison. Calls come from the whole dose curve; as a rule, active = well fitted inhibition curve with a large enough effect; inconclusive = small, poorly fitted or top-dose-only effect; inactive = no such curve, though single readings can be large or run the other way. A potency beside an inconclusive call is a rough fit, not a confirmed value.
% is set by controls: 0 for no effect and ±100 for the full control effect; potency is the fitted concentration of half-maximal effect; tags give direction and shape of the fitted curve.
Note: nearly all actives have a fitted effect of over 20% in size.

What follows are compounds tested against Ferritin light chain (Equus caballus) (UniProt P02791) (assay: qHTS Assay for Identification of Novel General Anesthetics). Conditions: apoferritin/1-aminoanthracene competitive binding, fluorescence; activity change, negative = displacement: at 77.5 µM (top of the series).
Chain of UniProt P02791 (P02791 whole entry, looked up): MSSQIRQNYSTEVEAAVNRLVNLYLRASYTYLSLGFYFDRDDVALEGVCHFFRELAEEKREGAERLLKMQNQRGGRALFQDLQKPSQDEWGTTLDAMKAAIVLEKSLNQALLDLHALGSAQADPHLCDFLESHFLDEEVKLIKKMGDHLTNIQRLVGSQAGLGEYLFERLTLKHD
Outline: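 Probe: 1-aminoanthracene (50% saturated, PBS). Protein: horse-spleen apoferritin, 10 uM. Incubation: 10 min, room temperature. Detection: 380 nm excitation, 535 nm emission. Analysis: normalized response, four-parameter Hill.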
For `Cc1ncc(CO)c2c1Oc1nc(-c3ccccc3)nc(SCC(=O)Nc3cccc(O)c3)c1C2`, the Potency was inconclusive: 35.5 µM [inhibitor, partial curve]. In the case of `COc1ccc(C2NC(=O)NC(C)=C2C(=O)Nc2cc(C)cc(C)c2)c(OC)c1` (stereo not given), the “activity change, negative = displacement” value is reported as inactive: -6.72%. With `CC(NS(=O)(=O)OCC(Cl)(Cl)Cl)c1ccc(C(C)(C)C)cc1` (stereo not given) the Potency was inconclusive: 22.4 µM [inhibitor, partial curve, poor fit]. With `COc1cc(C(=O)N/N=C/c2coc3ccccc3c2=O)cc(OC)c1OC` the Potency was inconclusive: 28.2 µM [inhibitor, single point]. `C(=N\N1CCN(Cc2cccc3ccccc23)CC1)/c1ccco1` was tested, and the Potency was inconclusive: 44.7 µM [inhibitor, single point]. In the case of `COc1cc(-c2noc(-c3ccc(NCCc4ccccc4)c([N+](=O)[O-])c3)n2)cc(OC)c1OC`, the “activity change, negative = displacement” value is reported as inactive: -2.06%. With `CCc1nc(NCCc2ccccn2)c2nnn(Cc3ccccc3F)c2n1` the “activity change, negative = displacement” value was inactive: -22.7%. In the case of `Cc1cc2ccccn2c1C(=O)c1ccc(NN)c([N+](=O)[O-])c1`, the Potency is reported as inconclusive: 17.8 µM [inhibitor, partial curve]. In the case of `O=C1CCC(c2ccccc2)N1C(=O)c1cccnc1` (stereo not given), the “activity change, negative = displacement” value is reported as inactive: 1.96%. With `CCCC(=O)N1CCN(c2ccc(NC(=O)C(C)(C)C)cc2Cl)CC1` the Potency was inconclusive: 20 µM [inhibitor, partial curve]. `Cc1ccc(C)c(N2CCN(C(=O)c3ccc4c(Cl)c5c(nc4c3)CCCC5)CC2)c1` was tested, and the Potency was inconclusive: 15.8 µM [inhibitor, partial curve]. For `N#CC(C#N)=c1ccc2c(c1)NC1(CCCCC1)N=2`, the Potency was inconclusive: 31.6 µM [inhibitor, partial curve]. `COc1ccc(-c2cnc(N)nc2-c2ccc(OC)cc2O)cc1` was tested, and the Potency was inconclusive: 39.8 µM [inhibitor, single point]. In the case of `COCCNC(=O)CCCn1c(SCC(=O)Nc2cccc(C)c2)nc2c(sc3ccccc32)c1=O`, the Potency is reported as inconclusive: 22.4 µM [inhibitor, partial curve]. In the case of `Cc1nnc2ccc(Oc3ccc(-c4ccccc4)cc3)nn12`, the Potency is reported as inconclusive: 31.6 µM [inhibitor, partial curve]. In the case of `Cc1ccc(-c2c(C#N)c(N)nc3c2CCCC3)o1`, the “activity change, negative = displacement” value is reported as inactive: 38.8%. With `CCC(=O)Nc1nonc1-c1nc2ccccc2n1N(C(=O)CC)C(=O)CC` the “activity change, negative = displacement” value was inactive: -9.79%. For `COC(=O)c1ccc(NC(=O)c2nc(S(=O)(=O)Cc3cccc(C)c3)ncc2Cl)cc1`, the Potency was inconclusive: 3.98 µM [inhibitor, single point]. `CCCCC1(C)NC(=O)c2c(C)sc(C(=O)OCC)c2N1` (stereo not given) was tested, and the “activity change, negative = displacement” value was inactive: -10.6%. In the case of `O=C(c1ccccc1)N1CCN(c2ccc([N+](=O)[O-])c(NCc3ccco3)c2)CC1`, the Potency is reported as inconclusive: 17.8 µM [inhibitor, partial curve]. With `Cc1cccc(C)c1-n1c(C)cc(/C=C2\NC(=O)NC2=O)c1C` the Potency was inconclusive: 35.5 µM [inhibitor, partial curve]. For `O=C(Nc1ccccc1-c1ccccc1)c1cccs1`, the Potency was inconclusive: 35.5 µM [inhibitor, single point]. In the case of `O=C(CCCSc1nc(-c2ccco2)cc(C(F)(F)F)n1)Nc1ccc2c(c1)OCO2`, the Potency is reported as inconclusive: 17.8 µM [inhibitor, partial curve]. For `O=C1/C(=C\c2ccc3ccccc3c2)CCCc2ccccc21`, the Potency was inconclusive: 15.8 µM [inhibitor, partial curve]. `CC(C)c1cccc2nc3c(c([Si](C)(C)C)c12)Cn1c-3cccc1=O` was tested, and the “activity change, negative = displacement” value was inactive: 167%. With `Cc1sc2nc(CSCC(=O)Nc3ccccc3C#N)[nH]c(=O)c2c1C` the “activity change, negative = displacement” value was inactive: -5.72%. For `COc1ccc(CNc2ccc(C)c(C)c2)c(OC)c1OC`, the Potency was inconclusive: 15.8 µM [inhibitor, partial curve]. In the case of `COc1nccnc1NS(=O)(=O)c1ccc(NC(=S)NC(=O)c2ccccc2)cc1`, the “activity change, negative = displacement” value is reported as inactive: 8.5%. With `CC(C)n1c(NCc2ccccc2O)nc2ccccc21` the “activity change, negative = displacement” value was inactive: -1.34%. In the case of `O=C1CSC(c2cccc(F)c2)N1c1ccc(O)cc1` (stereo not given), the Potency is reported as inconclusive: 31.6 µM [inhibitor, partial curve]. For `Cn1c(C(=O)NCc2ccc3c(c2)OCO3)cc2sccc21`, the Potency was inconclusive: 35.5 µM [inhibitor, partial curve]. With `CC(=O)N(CCCc1ccc(C(C)(C)C)cc1)CCCN(C)C` the Potency was inconclusive: 7.08 µM [inhibitor, partial curve]. With `O=C(CSc1ncnc2sc3c(c12)CCCC3)c1ccco1` the Potency was inconclusive: 31.6 µM [inhibitor, partial curve]. With `CC(=O)OC[C@@H]1O[C@H](C/C=N\O[C@@H](C)c2cn([C@H](CO)Cc3ccccc3)nn2)C=C[C@@H]1OC(C)=O` the activity change, negative = displacement was inactive: -4.06% [at 15.3 µM] and inactive: -0.25% [at 15.3 µM]. In the case of `CCCCn1c(CCC)nc([N+](=O)[O-])c1Sc1ccc(Cl)cn1`, the Potency is reported as inconclusive: 14.1 µM [inhibitor, partial curve]. With `O=C(N/N=C/c1ccccc1O)c1cccc(C(F)(F)F)c1` the “activity change, negative = displacement” value was inactive: 11.9%. `CCCOC(=O)c1ccc(-n2nnnc2SCC(=O)N2CCCCC2)cc1` was tested, and the Potency was inconclusive: 35.5 µM [inhibitor, partial curve]. For `COC(=O)c1ccc(Cn2nc(-c3ccc(C)c(C)c3)ccc2=O)cc1`, the Potency was inconclusive: 20 µM [inhibitor, partial curve]. `Cc1cnc(C(=O)OC(C(=O)Nc2cc(C(F)(F)F)ccc2Cl)c2ccccc2)cn1` (stereo not given) was tested, and the Potency was inconclusive: 28.2 µM [inhibitor, partial curve]. For `CSc1ccccc1OCc1cc(C(=O)N2C[C@H]3CC[C@H]2C3)no1`, the Potency was inconclusive: 20 µM [inhibitor, partial curve]. With `Cc1nc2ccc3nc(NC(=O)c4ccc5c(c4)OCCO5)sc3c2s1` the “activity change, negative = displacement” value was inactive: -2.7%. In the case of `O=C(CCN1C(=O)c2ccccc2C1=O)Nc1sc2c(c1C(=O)NCc1ccco1)CCCC2`, the Potency is reported as inconclusive: 3.55 µM [inhibitor, full curve]. `CC(=O)OCC[n+]1c(C)n(-c2ccccc2)c2ccc(Cl)cc21` was tested, and the “activity change, negative = displacement” value was inactive: -6.39%. With `O=c1c(F)cn(C2CCCO2)c(=O)n1Cc1c(Cl)cccc1Cl` (stereo not given) the Potency was inconclusive: 44.7 µM [inhibitor, single point]. In the case of `COc1cccc(C=O)c1OCCCOc1cccc2cccnc12`, the Potency is reported as inconclusive: 31.6 µM [inhibitor, partial curve]. With `Cc1cc(=O)n2c(C(=O)Nc3ccc(C(=O)OC(C)C)cc3)c(C(=O)Nc3ccccc3)sc2n1` the Potency was inconclusive: 15.8 µM [inhibitor, partial curve]. `COCCc1nn2c(=O)cc(COC(=O)COc3ccccc3C)nc2s1` was tested, and the Potency was inconclusive: 11.2 µM [inhibitor, partial curve]. `CC1CCN(S(=O)(=O)c2ccc(NC(=O)c3ccncc3)cc2)CC1` was tested, and the Potency was inconclusive: 14.1 µM [inhibitor, partial curve, poor fit]. With `Cc1ccc(Cl)cc1N1CCN(C(c2ccc(F)cc2)c2nnc(-c3ccccc3)o2)CC1` (stereo not given) the “activity change, negative = displacement” value was inactive: -10.2%. For `CC1CCCCC1NC(=O)COC(=O)c1ccccn1` (stereo not given), the Potency was inconclusive: 17.8 µM [inhibitor, partial curve]. With `O=C(N/N=C/c1cc(Br)c(O)c(Br)c1)c1cc2c(ccc3ccccc32)o1` the “activity change, negative = displacement” value was inactive: 2.35%. With `CN(C)CCN(Cc1ccccc1)c1ccnc(N(C)C)c1C#N` the “activity change, negative = displacement” value was inactive: -10.7%. `C=CCn1c(N)c(C(=O)Nc2ccccc2OC)sc1=S` was tested, and the “activity change, negative = displacement” value was inactive: -17.5%. With `Cc1ccc(C2=NN(CC(=O)NCc3cccnc3)C(=O)CC2)cc1` the Potency was inconclusive: 50.1 µM [inhibitor, single point]. For `Cn1nnnc1SCC(=O)c1ccc2c(c1)OCCO2`, the Potency was inconclusive: 28.2 µM [inhibitor, single point]. For `CCCCOc1ccc2ccccc2c1C=O`, the Potency was inconclusive: 44.7 µM [inhibitor, partial curve]. In the case of `CCOc1ccc(CCNC(=O)CSc2cc(=O)n(C)c3ccccc23)cc1OCC`, the Potency is reported as inconclusive: 17.8 µM [inhibitor, partial curve]. With `CC(C)(C)C(=O)[C@H]1[C@H](c2ccccc2)[C@@]2(N=C(c3ccccc3)OC2=O)C2c3ccccc3C=NN21` (stereo not given in full) the Potency was inconclusive: 15.8 µM [inhibitor, partial curve]. In the case of `CC(Sc1nncs1)C(=O)Nc1ccc2c(c1)OCO2` (stereo not given), the Potency is reported as inconclusive: 35.5 µM [inhibitor, single point]. In the case of `COC(=O)C1CCC(=S)N1C(=O)c1ccccc1` (stereo not given), the Potency is reported as inconclusive: 31.6 µM [inhibitor, partial curve]. With `CCOC(=O)Cc1nnc(NC(=O)CSc2nnc3c4ccccc4n(C)c3n2)s1` the Potency was inconclusive: 31.6 µM [inhibitor, partial curve]. For `CCN1C(=S)SC(=O)C1=C1C=C(C)OC(C)=C1`, the Potency was inconclusive: 44.7 µM [inhibitor, partial curve]. `Cc1ccc(N=C2SCCCN2C(=O)c2ccco2)cc1Cl` was tested, and the Potency was inconclusive: 22.4 µM [inhibitor, partial curve]. `O=C(Nc1ccc(-n2ccc(C(F)(F)F)n2)cc1)c1cccs1` was tested, and the Potency was inconclusive: 10 µM [inhibitor, partial curve]. With `CN(C#N)c1nccc(-c2cccs2)n1` the “activity change, negative = displacement” value was inactive: -4.45%. With `Cc1ccc(CN2CCN(CCC(C)C)C(CCO)C2)s1` (stereo not given) the “activity change, negative = displacement” value was inactive: -7.85%. With `O=C(CNC(=O)C1CCCCC1)OCC(=O)c1ccc(Br)cc1` the Potency was inconclusive: 28.2 µM [inhibitor, partial curve]. With `O=C(NC(=S)Nc1ccccn1)c1ccc(-c2ccccc2)cc1` the Potency was inconclusive: 4.47 µM [inhibitor, full curve]. With `CN1CCC[C@@H]1c1cccnc1` the “activity change, negative = displacement” value was inactive: 1.71%. For `Cc1ccc(-n2ncc(C(=O)NCc3cccs3)c2C2CCN(C(=O)OC(C)(C)C)CC2)cc1C`, the Potency was inconclusive: 7.08 µM [inhibitor, single point].
